Hit rate of the full screen: of about 45,000 compounds, about 65 (0.1%) were called active. Calls come from the whole dose curve; as a rule, active = well fitted activation curve with a large enough effect; inconclusive = small, poorly fitted or top-dose-only effect; inactive = no such curve, though single readings can be large or run the other way. The list shows a part of the results.
Potency is the fitted concentration of half-maximal effect.

Sequence of UniProt P54803 (P54803 whole entry, looked up): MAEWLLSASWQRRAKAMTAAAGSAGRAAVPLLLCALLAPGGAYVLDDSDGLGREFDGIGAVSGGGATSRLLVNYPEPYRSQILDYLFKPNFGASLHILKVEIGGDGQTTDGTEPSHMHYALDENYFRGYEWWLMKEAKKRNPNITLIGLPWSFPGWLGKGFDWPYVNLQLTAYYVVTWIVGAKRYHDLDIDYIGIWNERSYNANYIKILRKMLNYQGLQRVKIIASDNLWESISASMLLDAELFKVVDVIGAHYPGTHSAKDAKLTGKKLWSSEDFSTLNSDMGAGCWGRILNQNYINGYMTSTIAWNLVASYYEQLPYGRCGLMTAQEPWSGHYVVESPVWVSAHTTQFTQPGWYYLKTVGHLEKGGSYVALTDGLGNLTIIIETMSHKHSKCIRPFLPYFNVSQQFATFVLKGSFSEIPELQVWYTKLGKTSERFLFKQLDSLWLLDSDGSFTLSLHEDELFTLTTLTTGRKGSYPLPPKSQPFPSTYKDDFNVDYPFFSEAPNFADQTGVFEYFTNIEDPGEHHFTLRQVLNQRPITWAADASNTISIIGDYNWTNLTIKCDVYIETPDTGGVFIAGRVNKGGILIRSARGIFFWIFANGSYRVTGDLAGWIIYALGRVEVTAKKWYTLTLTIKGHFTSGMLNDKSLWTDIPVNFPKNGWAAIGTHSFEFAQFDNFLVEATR

In the experiment the target is Galactocerebrosidase (Homo sapiens) (UniProt P54803). Nature of the experiment: A Novel Cell-Based Assay to Identify Small Molecules for B -Galactocerebrosidase. For activation: 0% is about no effect. Note: nearly all actives have a fitted effect of over 65% in size. Particulars: 145M-Twi-hGALC-G270D cells (Twitcher mouse brain line with human GALC G270D), HMU-beta-Gal fluorescence, 48 h; series mostly up to 57.5 µM; activation: at the top concentration. In outline:
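Mutant human GALC (G270D), stably expressed in a Twitcher mouse brain cell line lacking endogenous GALC, is measured in live-treated cells via 6-hexadecanoylamino-4-methylumbelliferyl-β-galactoside hydrolysis (0.1 mM final, pH 5.2) with fluorescent detection.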
As for `CCc1nc(C)cn1S(=O)(=O)c1ccc(Cl)c(Cl)c1OC`, the “activation” value was inactive: -26.6%.

With `N#Cc1ccccc1Cn1cnc2nc3c(cc2c1=O)CCCC3`, the “activation” value was inactive: -23.5%.

Turning to `CCNC(=O)c1c(NC(=O)c2nc(S(=O)(=O)CC)ncc2Cl)sc2c1CCCC2`, the “activation” value was inactive: -14.2%.

For `COc1ccccc1NC(=O)c1sc2nc3c(cc2c1N)CN(Cc1ccccc1)CC3`, the “activation” value is inactive: -14.8%.

Consider `O=C(CSc1nc(=O)[nH]c2c1CCCC2)NCc1ccc(F)cc1`, for which the “activation” value is inactive: -17.2%.

In the case of `COc1ccc(CC(=O)NCCS(=O)(=O)N2CCN(c3ccc(F)cc3)CC2)cc1OC`, the “activation” value is inactive: -11.2%.

On to `COCCn1c(C)cc(O)c(C(c2ccc(F)cc2)N2CCN(c3ccccc3)CC2)c1=O` (stereo unspecified), for which the “activation” value was inactive: -8.32%.

Regarding `CCOC(=O)c1c(C)c(-c2ccccc2)n(CC(=O)NCCc2cccc(C)c2)c1C`, the “activation” value is inactive: -9.2%.

Consider `Cc1nnc2c(N3CCN(c4ccccc4F)CC3)nc3ccc(C(=O)c4ccccc4)cc3n12`, for which the “activation” value is inactive: -6.49%.

`CCCOc1ccc(C(=O)Nc2ccc(NC(=O)c3ccccc3)c(C)c2)cc1`: the “activation” value is inactive: -14.4%.

Consider `Cc1cccc(CC(=O)NCc2nc3cccnc3n2Cc2ccc(F)cc2)c1`, for which the “activation” value is inactive: -19.3%.

`CCc1cc(=O)[nH]c(SCc2nc(-c3ccccc3)no2)n1`: the “activation” value was inactive: -25.1%.

For the compound `Cc1cccc(C(=O)NC2=NC(c3ccc(Cl)cc3)CC(=O)N2)c1` (stereo unspecified), the “activation” value is inactive: -17.4%.

As for `CCOC(=O)C(C#N)=C(c1ccccc1)c1ccccc1`, the “activation” value is inactive: -4.32%.

`COc1ccc(CNc2nc(SCc3ccccc3Cl)nc3ccccc23)cc1`: the “activation” value was inactive: 17.5%.

Consider `CSc1ccc(CCNC(=O)c2cc3cc(S(=O)(=O)N4CCCCC4)ccc3n2C)cc1`, for which the “activation” value is inactive: 3.4%.

Turning to `COc1ccc(N2CC(NC(=O)C3CCCC3)CC2=O)cc1OC` (stereo unspecified), the “activation” value was inactive: 28.8%.

For `CCOC(=O)C1CCC(CN(Cc2ccc(OC)cc2)S(=O)(=O)c2ccc(F)c(C(=O)Nc3c(C)cccc3C)c2)CC1` (stereo unspecified), the “activation” value was inactive: -12.8%.

`O=C(Nc1cccc(Cl)c1)C1CCCN(c2ncnc3c2nc2n3CCCCC2)C1` (stereo unspecified): the “activation” value was inactive: 5.05%.

On to `O=C(Cn1cnc2c(nc3n2CCCCC3)c1=O)Nc1ccc(F)c(Cl)c1`, for which the “activation” value was inactive: -9.8%.

As for `Cc1cc(F)ccc1NC(=O)CS(=O)(=O)c1cccc2nsnc12`, the “activation” value was inactive: -20.6%.

As for `Cc1ccccc1Nc1c(-c2ccccc2)nc2cccc(C)n12`, the “activation” value was inactive: -11.2%.

On to `CS(=O)(=O)Nc1ccccc1C(=O)OCc1cc(=O)n2nc(C3CCCCC3)sc2n1`, for which the “activation” value is inactive: -13.4%.

Take `CCc1ccc(C(=O)c2cn(CC(=O)Nc3cc(F)ccc3F)c3nc(C)ccc3c2=O)cc1`: the Potency is active: 3.98 µM.

For `COc1ccc(CCNC(=O)c2cn(C)c3ccc(S(=O)(=O)N(C)C)cc3c2=O)cc1OC`, the “activation” value was inactive: -9.96%.

For `Cn1nc(C(=O)N2CCN(c3ccc(F)cc3)CC2)c2c1-c1ccccc1SC2`, the “activation” value is inactive: -13.3%.

Regarding `CC1CCCN(S(=O)(=O)c2cc3c4c(c2)CC(=O)N4CCC3)C1` (stereo unspecified), the “activation” value is inactive: -20.9%.

In the case of `COc1ccc2c(c1)sc1ncc(C(=O)NCc3cccc(C)c3)c(=O)n12`, the “activation” value is inactive: -7.43%.

Consider `CCN(C(=O)c1cn(CC(C)C)c(=O)c2cc(OC)c(OC)cc12)c1cc(OC)ccc1OC`, for which the “activation” value is inactive: 14.3%.

On to `CC(C)c1ccc(NC(=O)Cn2nnc(C(=O)NCc3ccc(Cl)cc3)c2N)cc1`, for which the “activation” value is inactive: -5.23%.

`CN1c2cc(Cl)ccc2-c2nc(SCC(=O)Nc3ccc(F)cc3F)ncc2S1(=O)=O`: the “activation” value was inactive: -7.64%.

Regarding `CC1=C(C(=O)Nc2cccnc2)C(c2ccc(F)cc2)n2nc(SCc3ccccc3F)nc2N1` (stereo unspecified), the “activation” value is inactive: -17.2%.

`CCN(C(=O)c1cc2c(Cl)nc3ccccc3c2s1)c1cccc(Cl)c1`: the “activation” value is inactive: -23.5%.

Consider `CCOC(=O)c1cnc2c(C)c(Cl)ccc2c1Nc1ccc(C)cc1C`, for which the “activation” value is inactive: 17.1%.

Regarding `CCOC(=O)N1CCc2c(sc(NCc3ccc(OCC)cc3)c2C(=O)Nc2ccc(OC)cc2OC)C1`, the “activation” value is inactive: 0.0556%.

`O=C(NC1CCCC1)c1ccc(CSc2nc3ccncc3n2Cc2ccccc2F)cc1`: the “activation” value is inactive: -7.68%.

In the case of `COc1ccc(OC2CCN(S(=O)(=O)c3ccc(OC)cc3)CC2)cc1`, the “activation” value is inactive: -4.89%.

Regarding `COc1cc(NC(=O)CN(C)S(=O)(=O)c2ccc3[nH]c4c(c3c2)CCCC4)cc(OC)c1OC`, the “activation” value was inactive: -1.3%.

With `CCOc1ccccc1NC(=O)C(Cc1ccccc1)NS(=O)(=O)c1ccc(Br)s1` (stereo unspecified), the “activation” value is inactive: -38.6%.

Take `COc1ccccc1C(=O)NCc1ccc2c(c1)CCN2C(=O)c1ccncc1`: the “activation” value was inactive: -18%.

For the compound `CCOC(=O)C1CCCN(C(=O)C2CCN(c3nnc(C)c4c(C)n(-c5ccccc5)nc34)CC2)C1` (stereo unspecified), the “activation” value is inactive: -7.05%.

As for `CCn1cc(C(=O)O)c(=O)c2cc(F)c(N3CCNCC3)nc21`, the “activation” value is inactive: -7.44%.

For `Clc1ccc(-c2noc3ncnc(NCCCN4CCN(c5ccccc5)CC4)c23)cc1`, the “activation” value was inactive: -11.2%.

Turning to `Cc1cc(NC(=O)CSc2nc3c([nH]c4ccccc43)c(=O)n2-c2cccc(Cl)c2)no1`, the “activation” value was inactive: -1.09%.

For `CC(=O)OCC(=O)NCCCOc1cccc(CN2CCCCC2)c1`, the “activation” value is inactive: -14.2%.

Consider `CCc1ccc(CNC(=O)C(CC)n2ccc3cc(S(=O)(=O)N4CCCCC4)ccc32)cc1` (stereo unspecified), for which the “activation” value is inactive: 5.54%.

On to `COc1ccc(CNS(=O)(=O)c2cc(C(=O)Nc3cc(Cl)cc(Cl)c3)ccc2F)cc1`, for which the “activation” value was inactive: -13.3%.

Consider `Cc1ccc(C)c(N2CCN(C(=O)C3CCN(S(=O)(=O)c4cn(C)cn4)CC3)CC2)c1`, for which the “activation” value is inactive: -10.8%.

Take `COC(=O)C1=C(C)NC(COC(N)=O)=C(C(=O)OC(C)C)C1c1cccc(Cl)c1Cl` (stereo unspecified): the “activation” value was inactive: -13.9%.

As for `CCc1ccccc1Nc1nn2c(=O)c3ccc(C(=O)NCc4cccs4)cc3nc2s1`, the “activation” value was inactive: -21.1%.

For `CCOC(=O)Cn1c(=O)oc2cc(S(=O)(=O)Nc3cc(OC)cc(OC)c3)ccc21`, the “activation” value is inactive: -16.2%.

Turning to `COc1ccc(N2CCN(C(=O)C3CCN(S(=O)(=O)c4cnc[nH]4)CC3)CC2)cc1`, the “activation” value is inactive: -6.05%.

Consider `COc1ccccc1C(=O)NCc1ccc2c(c1)CCN2C(=O)c1cccc(C)c1`, for which the “activation” value was inactive: -17.3%.

`CCc1ccc(S(=O)(=O)c2nnn3c2nc(NCc2cccs2)c2sccc23)cc1`: the “activation” value is inactive: -25.9%.

With `CCn1c(C)c(C)c2cc(C(=O)NCCc3cc(OC)c(OC)c(OC)c3)ccc21`, the “activation” value was inactive: -2.34%.

On to `CN1CCN(C(c2ccc(F)cc2)c2sc3nc(-c4ccco4)nn3c2O)CC1` (stereo unspecified), for which the “activation” value was inactive: -15.4%.

Regarding `Cc1cccc(C(=O)Nc2cccc(C(=O)OCc3cc(=O)n4c5c(sc4n3)CCCC5)c2)c1`, the “activation” value was inactive: -7.04%.

Consider `COc1ccc(Cn2c(C(=O)O)c(CNCc3cccs3)c3ccc(C)cc32)cc1`, for which the “activation” value was inactive: 0.0713%.

As to `COc1ccc(-c2c3c(=O)n(C)c(=O)n(C)c3c3c(-c4ccccc4)nc4ccccc4n23)cc1`, the “activation” value was inactive: -14.9%.

On to `O=C(Nc1ccccc1F)C(Cc1ccccc1)n1cccc1` (stereo unspecified), for which the “activation” value was inactive: -9.96%.

For the compound `COc1cc(OC)cc(-c2nc3nc(C)c(CCC(=O)Nc4ccc(Cl)cc4)c(C)n3n2)c1`, the “activation” value is inactive: 2.08%.

For the origin of these results see PubChem BioAssay AID1159614 (National Center for Advancing Translational Sciences (NCATS), 2016).
